Structures are written as SMILES. Some entries of the source have several records that differ or are many. The list is limited to them. The rule behind the calls is not given here. The source may hold further records. Values that stand side by side are repeats across runs, samples, wells, individuals or studies. Records carry a tag for their origin. A, B and so on number the origins entry by entry.

The experiment has as its target Peptidyl-prolyl cis-trans isomerase FKBP1A (Homo sapiens) (UniProt P62942). Briefly: FKBP12 binders, biophysical, NMR detection (AID 608). The following applies: NMR binding, purified FKBP12.
Sequence of UniProt P62942 (P62942 whole entry, looked up): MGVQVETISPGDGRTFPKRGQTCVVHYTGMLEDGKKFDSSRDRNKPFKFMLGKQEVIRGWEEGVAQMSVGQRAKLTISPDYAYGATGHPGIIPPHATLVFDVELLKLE
Regarding `CC(=O)c1cccc(NS(=O)(=O)N2CCCCC2)c1`, the Kd was 25 µM [sample A] and 686 µM [sample B].
Next, `Cc1csc(CCc2nc(C)cs2)n1`: 204 µM [sample A] and inactive [sample B]; `O=S(=O)(N1CCOCC1)n1nnc2ccccc21`: “inactive: > 4 mM [sample A] and inactive [sample B]”; `Cc1cc2ncn(S(=O)(=O)N3CCOCC3)c2cc1C`: “inactive: > 4 mM [sample A] and inactive [sample B]”.

For orientation: Kd means the constant that tells how readily two partners part at equilibrium.

The record behind these values is PubChem BioAssay AID608 (Sanford-Burnham Center for Chemical Genomics, 2007).
